Results from patent EP1611148B1, “NOVEL NITRILE GLYCOSIDE USEFUL AS A BIO-ENHANCER OF DRUGS AND NUTRIENTS, PROCESS OF ITS ISOLATION FROM MORINGA OLEIFERA” (Council of Scientific and Industrial Research, priority 2003, dated 2004).

Test system: Escherichia coli, CA 8000
Test: Enhancement of adsorption of λ phage on bacteria
Conditions: niaziridin 1µg/ml; MOI=10
Experimental: Overnight grown bacterial culture (Escherichia coli, CA 8000) was divided into 5 ml of aliquot each in screw cap tubes. One of the tube with the bacterial culture was treated with niaziridin to a final concentration of 1µg/ml. Both the control and the treated tubes were incubated at 37°C for 4 hours. The cultures were then infected with λ phage (MOI=10) for 10minutes at 37°C (for adsorption) followed by centrifugation at 10000 RPM for 10 minutes at 4°C.
The supernatant and the pellets for both treated and untreated cultures were then compared for the phage titer by plating on top agar containing sensitive bacteria at different dilutions. The phage titer in the supernatant of the treated culture was reduced by 2.6 folds indicating increase in adsorption to the bacterial cells harvested in the pellet. Table-7: Effect of plant compound, niaziridin on λ phage adsorption on E.coli cells.

With niaziridin the “reduction of phage titer in the supernatant of the treated culture” value was 2.6 folds.
